Measured values from PubChem BioAssay AID485344 (National Center for Advancing Translational Sciences (NCATS), 2010).
In all, about 340,000 compounds went through this assay and about 6,900 (2%) were called active. Cut-off read from the data, not from the text of the source: active = inhibition above about 30%; inactive = below that, where a call was filed. Only a part is listed here, and it is no random draw. The source gives no active or inactive call for entries shown without one.
Note: 0% is about no effect.

The compounds below were run against D(2) dopamine receptor (Homo sapiens) (UniProt P14416) (assay: HTS Assay for Allosteric Antagonists of the Human D2 Dopamine Receptor: Primary Screen for Antagonists). Settings: HEK293 TREx D2 cells, calcium flux, dopamine EC80; at 10 µM; stronger effect = higher value.
UniProt P14416, sequence (P14416 whole entry, looked up): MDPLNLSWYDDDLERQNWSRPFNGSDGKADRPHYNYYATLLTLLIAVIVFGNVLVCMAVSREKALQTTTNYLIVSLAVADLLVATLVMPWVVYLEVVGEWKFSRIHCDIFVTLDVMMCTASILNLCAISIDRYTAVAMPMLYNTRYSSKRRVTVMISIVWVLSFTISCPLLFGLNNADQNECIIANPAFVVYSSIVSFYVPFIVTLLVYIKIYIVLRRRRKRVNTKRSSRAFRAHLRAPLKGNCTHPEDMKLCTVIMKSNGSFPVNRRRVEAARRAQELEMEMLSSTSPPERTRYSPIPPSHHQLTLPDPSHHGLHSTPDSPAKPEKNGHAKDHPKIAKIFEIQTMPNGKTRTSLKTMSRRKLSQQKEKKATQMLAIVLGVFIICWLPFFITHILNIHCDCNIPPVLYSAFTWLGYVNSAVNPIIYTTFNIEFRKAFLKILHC
Procedure, shortened: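 Tetracycline-induced HEK293 TREx cells expressing D2 receptor forced-coupled to calcium signalling, loaded with no-wash calcium dye. Compounds added and calcium flux read 180 s, then dopamine added at EC80 and read a further 180 s.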
For Cc1cc(C)c(Cn2c3ccccc3c3cnn(CC(=O)NCc4ccc(Cl)cc4)c(=O)c32)c(C)c1, the inhibition was 8.21%.
O=C(Nc1nnc(S(=O)(=O)N2CCCCC2)s1)c1ccc(F)cc1 was tested, and the inhibition was 14.1%.
CCOc1ccc(NC(=O)c2cc(S(=O)(=O)N3CCCC3)c[nH]2)cc1 was tested, and the inhibition was 22.9%.
With CC1=C(C(=O)Nc2ccccc2C)C(c2ccco2)n2ncnc2N1 (stereo unspecified) the inhibition was -22.1%.
Cc1noc(Cn2c(=O)c3ccccc3n(CC(=O)Nc3ccc(F)cc3F)c2=O)n1 was tested, and the inhibition was -0.447%.
For Cc1ccc(CNC(=O)Cn2cc(S(=O)(=O)Cc3cccc(Cl)c3)c3ccccc32)cc1, the inhibition was 24.5%.
Work on COc1ccc(-c2nc3nc(C)cc(Nc4cccc(C(F)(F)F)c4)n3n2)cc1 yielded an inhibition of 11.2%.
In the case of O=C(CCCc1nc(-c2ccccc2)no1)Nc1cc(C(F)(F)F)cc(C(F)(F)F)c1, the inhibition was 16.8%.
With COc1ccc(NC(=O)COc2ccc(S(=O)(=O)NC3CCCCC3)cc2)c(OC)c1 the inhibition was -9.19%.
In the case of CCCCN(C)C1=CC2=CC(=C(C#N)C#N)CCC2CC1 (stereo unspecified), the inhibition was active: 73.4%.
In the case of Cc1ccc(NC(=O)c2cnc(N3CCCCC3)c3ccccc23)cc1Cl, the inhibition was -15.1%.
COC(=O)c1scc(-c2ccc(C)cc2)c1S(=O)(=O)Nc1cccc(Cl)c1C was tested, and the inhibition was -2.69%.
Cc1ccc(OCCn2cc(C(=O)c3ccco3)c3ccccc32)cc1C was tested, and the inhibition was 8.4%.
COC(=O)C1=C(C(=O)OC)SC(=C2C(=S)C(C)(C)N(C(=O)CC(C)C)c3ccccc32)S1 was tested, and the inhibition was active: 30.3%.
For COc1ccc(-c2nc3scc(CCNS(=O)(=O)c4ccc(F)c(C(F)(F)F)c4)n3n2)cc1OC, the inhibition was 12.5%.
Compound CCCC(=O)C1=C(c2ccc(C)cc2)N(C(=O)CCC)n2cnnc2S1 has an inhibition of -14.7%.
For O=c1c2ccccc2[nH]c(=S)n1CCCN1CCN(C2CCCCC2)CC1, the inhibition was active: 82.3%.
CCN1CCN(c2cc(C)c3cc(NC(=O)c4cccc(Cl)c4)ccc3n2)CC1 was tested, and the inhibition was -3.71%.
Work on Cc1oc(-c2ccc(C(=O)Nc3cccc(C(F)(F)F)c3)cc2)nc1CSc1ccccc1 yielded an inhibition of 2.26%.
Compound COc1ccc(Nc2nc3ccc(Cl)cc3n3nnnc23)cc1OC has an inhibition of 11.8%.
O=C(CCCCn1c(=O)c2ccccc2n(CC(=O)Nc2ccccc2)c1=O)NCc1ccccc1Cl showed an inhibition of -12.5%.
In the case of Cc1cccc(N2CCN(S(=O)(=O)c3ccc4oc(=O)c5ncn(C)c5c4c3)CC2)c1C, the inhibition was -8.69%.
CCc1nnc2c3ccccc3nc(Nc3ccccc3OC)n12 gave an inhibition of -22.9%.
In the case of Cc1c(C)n(Cc2ccccc2)c2ccc(C(=O)NCc3ccc(OC(C)C)cc3)cc12, the inhibition was 3.8%.
Work on CCOC(=O)c1sc(NC(=O)C(C)Sc2nc(-c3ccccc3)cc(C(F)(F)F)n2)c(C(=O)OC)c1C (stereo unspecified) yielded an inhibition of 2.86%.
CCOC(=O)C1(Cc2ccccc2C(F)(F)F)CCN(CCCn2cccn2)CC1 was tested, and the inhibition was active: 47.9%.
With CCOc1ccc(C(=O)Nc2ccc(-c3nc4cc(C)ccc4o3)cc2)cc1 the inhibition was 2.89%.
COCCn1nnnc1C(c1cc2cccc(C)c2[nH]c1=O)N1CCN(c2ccccc2F)CC1 (stereo unspecified) was tested, and the inhibition was active: 34.3%.
In the case of CCCCCn1c(CCCNC(=O)c2cccc(C)c2)nc2ccccc21, the inhibition was -1.02%.
For COCc1ccc(CN2CCC(C(=O)Nc3cccc(-c4cccc(Cl)c4)c3)CC2)o1, the inhibition was active: 33.5%.
With N=c1oc2c3c4c(cc2cc1C(=O)Nc1ccccc1)CCCN4CCC3 the inhibition was active: 70.8%.
With CCOC(=O)c1cc(-c2ccccc2)n(CCC(=O)Nc2cc(OCC)ccc2OCC)c1C the inhibition was 1.29%.
COc1ccc(NC(=O)c2ccc(NC(=O)CCS(=O)(=O)c3cccs3)cc2)cc1OC showed an inhibition of 8.24%.
With CCOc1ccccc1CNC(=O)c1ccc2c(c1)sc1nc(-c3ccccc3)cn12 the inhibition was 14.6%.
With Cc1ccc(Cl)cc1N1CCN(CCCNc2ncnc3onc(-c4ccc(Cl)cc4)c23)CC1 the inhibition was -2.79%.
With Cc1ccc(OCCNCC(O)COc2ccccc2)cc1 (stereo unspecified) the inhibition was active: 45.2%.
With Cc1noc2ncnc(N3CCCC(C(=O)NC(C)C)C3)c12 (stereo unspecified) the inhibition was 3.7%.
For Cc1cccc(CCNC(=O)C2CCN(c3ncnc4c3nc3n4CCCCC3)CC2)c1, the inhibition was 19.2%.
In the case of Cc1cccc(NC(=O)CN2C(=O)c3ccccc3Sc3ncccc32)c1C, the inhibition was 15.1%.
Compound COc1ccccc1C(=O)OCc1cc(=O)n2nc(C3CCCCC3)sc2n1 has an inhibition of -7.83%.
With Cc1ccccc1C(C(=O)NC1CCCC1)N(C(=O)CNC(=O)c1ccco1)c1cccnc1 (stereo unspecified) the inhibition was active: 50.8%.
CCn1c(NCc2ccc(OC)c(OC)c2)nc2ccccc21 gave an inhibition of -17.1%.
Cc1ccc(S(=O)(=O)c2nnn3c2nc(N2CCC(C)CC2)c2cc(Cl)ccc23)cc1C was tested, and the inhibition was 5.57%.
CCN1C(=O)c2ccccc2S(=O)c2ccc(C(=O)N3CCN(c4ccccc4)CC3)cc21 (stereo unspecified) was tested, and the inhibition was -28.3%.
CCOC(=O)CN(C(=O)CSc1nnc2c(n1)[nH]c1ccc(F)cc12)c1ccccc1 was tested, and the inhibition was active: 72.5%.
COc1cccc(CNC(=O)CCCN2C(=O)CSc3c2c(C)nn3-c2ccccc2)c1OC gave an inhibition of -16.9%.
For CCOC(=O)c1c(NC(=O)/C=C/c2ccc(OCC)c(OC)c2)sc2c1CCC2, the inhibition was -10.7%.
CCc1ccccc1NC(=O)CN(c1ccc(OC)cc1)S(=O)(=O)c1c(C)n[nH]c1C showed an inhibition of -5.37%.
Cc1ccc(NC(=O)c2cc(S(=O)(=O)NCCC3=CCCCC3)ccc2F)cc1C gave an inhibition of 4.33%.
Cc1cccc(-c2nc3scc(CCNS(=O)(=O)c4ccc(F)cc4C)n3n2)c1 showed an inhibition of 9.59%.
For CCc1ccc(NC(=O)c2sc3nc(C)c(C(=O)Nc4ccc(C)cc4C)c(-c4ccco4)c3c2N)cc1, the inhibition was -1.52%.
COc1ccc(Nc2sc(C(=O)c3ccccc3)c(N)c2C(=O)Nc2cc(C)ccc2C)c(OC)c1 was tested, and the inhibition was -1.96%.
For Cc1oc(-c2ccccc2)nc1CNC(=O)NC1CCCCC1, the inhibition was 6.72%.
In the case of Cc1c(NC(=O)c2cc(-c3ccc(Br)cc3)on2)c(=O)n(-c2ccccc2)n1C, the inhibition was 2.55%.
With Cc1ccccc1Nc1c(-c2c[nH]c3ccccc23)nc2ccccn12 the inhibition was 12%.
With CC(C)(C)OC(=O)N1CCC(c2nnc(SCc3ccccc3F)o2)CC1 the inhibition was -14.6%.
With O=c1c2oc3ccccc3c2n(Cc2ccccc2)c(=O)n1Cc1ccco1 the inhibition was -8.87%.
With COc1ccc(OC)c(CNC(=O)c2cc3ccc4cccnc4c3[nH]2)c1 the inhibition was -8.08%.
For CCCSc1ccc([C@@H]2[C@@H]3C(=O)N(C)C(=O)[C@@H]3[C@]3(C(=O)OC)CCCCN23)cc1OC, the inhibition was active: 35.5%.
Compound CC1CCCN(CCCNC(=O)c2cc3c(Cl)nc4ccccc4c3s2)C1 (stereo unspecified) has an inhibition of -0.754%.
Work on COc1ccc(C(=O)CCC(=O)Nc2ccc(C)c(Cl)c2)cc1 yielded an inhibition of 3.98%.
In the case of COc1cc(Cl)c(C)cc1Nc1nc2ccccc2n2cnnc12, the inhibition was 25.5%.
For COc1ccccc1CNC(=O)C1CCN(S(=O)(=O)c2cn(C)cn2)CC1, the inhibition was -1.04%.
For O=C(NCCc1csc(-c2ccc(F)cc2)n1)c1cccc(F)c1, the inhibition was 5.08%.
Cc1ccc(C2c3[nH]c4ccccc4c3CCN2C(=O)CSCc2ccc(F)cc2)cc1 (stereo unspecified) was tested, and the inhibition was 5.82%.
For CCc1ccccc1N(C)C(=O)c1sc2nc3n(c(=O)c2c1C)CCCCC3, the inhibition was -7.93%.
Cc1nn(C)c(C)c1CCNC(=O)Nc1ccccc1C(F)(F)F gave an inhibition of 14.9%.
COc1ccc(N2CC(NC(=O)/C=C\c3ccccc3)CC2=O)cc1OC (stereo unspecified) was tested, and the inhibition was -5.67%.
Compound COc1ccc(CNC(=O)Cn2c(-c3ccccc3)cc(C(C)=O)c2C)cc1OC has an inhibition of 3.52%.
CCN(CC)c1nn2c(=O)c(C(=O)NCc3ccc(N(C)C)cc3)cnc2s1 showed an inhibition of -1.21%.
CCC(=O)N1CCc2cc(S(=O)(=O)NC(C(=O)NCCc3cccc(C)c3)C(C)C)ccc21 (stereo unspecified) gave an inhibition of 8.31%.
CN(Cc1ccco1)S(=O)(=O)c1nnc(NC(=O)c2ccccc2Cl)s1 was tested, and the inhibition was -21.4%.
With Cc1ccc(S(=O)(=O)CCN2CCN(c3ccccc3)CC2)cc1 the inhibition was active: 30.2%.
O=C(NCc1cccs1)c1ccc(CSc2nc3ccncc3n2Cc2ccccc2F)cc1 showed an inhibition of -5.13%.
Cc1cc2oc(C(=O)N(Cc3ccco3)Cc3ccccc3Cl)c(C)c2cc1C gave an inhibition of 4.07%.
Cc1ccc(SCC(=O)Nc2ccc3oc(-c4ccccc4F)nc3c2)cc1 was tested, and the inhibition was -4.11%.
CCOC(=O)c1ccccc1NC(=O)c1cnc(N2CCOCC2)c2ccccc12 was tested, and the inhibition was 27.1%.
In the case of COc1ccc(NC(=O)c2nc(-c3ccc(C)cc3)n3c2CCCCC3)c(OC)c1, the inhibition was 17.1%.
CCc1cccc(C)c1NC(=O)c1cnn(-c2ccc(OC)cc2)c1C1CCN(C(=O)OC(C)(C)C)CC1 gave an inhibition of 2.96%.
CCOC(=O)CNC(=O)c1cc2c(=O)n3cccc(C)c3nc2n1C was tested, and the inhibition was 15.1%.
CCc1nn2c(=O)c(S(=O)(=O)Nc3ccc(C)c(C)c3)c(C)nc2s1 was tested, and the inhibition was -4.83%.
CC(C)Oc1ccc(CNC(=O)c2ccc(NC(=O)N3CC(C)Sc4ccccc43)cc2)cc1 (stereo unspecified) showed an inhibition of -1.33%.
Compound O=C(/C=C/c1ccccc1)Nc1nc2n(n1)C(c1ccc(F)cc1)C=C(c1ccccc1)N2 (stereo unspecified) has an inhibition of -6.49%.
In the case of CC1CCc2onc(C(=O)N3CCN(c4cccc(Cl)c4)CC3)c2C1 (stereo unspecified), the inhibition was 11.5%.
CC(=O)Oc1ccc2c(c1)Oc1cc(OC(C)=O)ccc1C21OC(=O)c2ccccc21 was tested, and the inhibition was active: 83.5%.
Cc1cc(Br)cc2c1N(Cc1ccccc1OC(C)C)C(=O)C2=O gave an inhibition of -2.24%.
With Cc1cc(C)c(S(=O)(=O)NCC(c2ccco2)S(=O)(=O)c2cccs2)c(C)c1 (stereo unspecified) the inhibition was 19.2%.
Cc1ccc(NC(=O)Nc2cc(S(=O)(=O)N(C)C)ccc2C)cc1 was tested, and the inhibition was active: 37%.
In the case of CCc1cnc2c(c1SCC(=O)Nc1ccc(C(=O)OC)cc1)c(=O)n(C)c(=O)n2C, the inhibition was 8.47%.
For Cc1ccc2c(c1)cc(C(=O)NCc1ccccc1C)n2C, the inhibition was 6.21%.
In the case of CC(C)Oc1ccc(CNC(=O)C2CCN(Cc3cc4ccccc4n3Cc3ccccc3)CC2)cc1, the inhibition was -3.37%.
With COc1cc(CN2CCC(C(=O)N3CCN(c4ccccc4F)CC3)CC2)cc(OC)c1O the inhibition was active: 33.7%.
CC(C)(C)c1ccc(OCCOCCn2c(-c3ccc(Cl)cc3)nc3ccccc3c2=O)cc1 showed an inhibition of -2.73%.
In the case of O=C(COC(=O)c1cccc(NC(=O)c2ccc(Br)cc2)c1)c1ccc(Cl)cc1, the inhibition was 7%.
Compound Cc1cccc(Cn2c(COc3ccccc3)nc3ccccc32)c1 has an inhibition of -1.88%.
CCn1c2ccccc2c2cc(NC(=O)COc3cc(C)ccc3C)ccc21 showed an inhibition of 6.67%.
